{"source": "PubChem BioAssay AID686970", "about": "(National Center for Advancing Translational Sciences (NCATS), 2013)", "note": "About 6,000 (1.7%) of roughly 360,000 compounds were called active. Inconclusive results, whose numbers are uncertain, are shown with a selection of clear calls. Calls follow the shape of the dose curve; as a rule, active = well fitted cell-killing curve with a large enough effect; inconclusive = small, poorly fitted or top-dose-only effect, or effect the other way; inactive = flat fitted curve, though single readings scatter. Potencies of inconclusive entries are left out as doubtful fits. Potency is read from the fitted curve at half-maximal effect; tags tell the direction and shape of the fitted curve.", "data": [{"assay": "qHTS for induction of synthetic lethality in tumor cells producing 2HG: qHTS for the HT-1080-NT fibrosarcoma cell line;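 also: NT is the 2HG producing partner of a matched IDH1 knockdown line; nearly all actives have a fitted effect of over 55% in size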;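 as to activity, negative = less viability: 0% = DMSO-treated cells and -100% = media-only wells without cells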", "conditions": "HT-1080-NT fibrosarcoma viability, CellTiter-Glo ATP luminescence, 48 h; activity, negative = less viability: at 46.1 µM (top of the series) unless noted", "method_in_brief": "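Viability by CellTiter-Glo luminescence after 48 h compound exposure at 37C of HT-1080-NT cells (750/well, RPMI, 5% FBS). % activity scaled between DMSO wells and medium-only wells, then curve-fitted and categorized by curve class.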", "values": [{"compound": "O=C(CC[C@H]1O[C@@H](n2cnc3c(NC(=O)c4ccccc4)ncnc32)[C@H](O)[C@@H]1O)NCC1CCN(Cc2ccccc2)CC1", "Potency": "inconclusive [rising, single point]"}, {"compound": "CCN(CC)CCNC(=O)c1cc2c(-c3ccc(Cl)cc3)nn(C)c2s1", "Potency": "active: 18.4 µM"}, {"compound": "C=CCn1c(SCc2cc(C(C)=O)ccc2OCC)nc2ccccc2c1=O", "Potency": "inconclusive [cytotoxic, full curve]"}, {"compound": "COc1ccc(CNc2nc(-c3ccccc3)nc3ccccc23)cc1OC", "Potency": "inconclusive [cytotoxic, single point]"}, {"compound": "C[C@@]12C(=O)Nc3ccc(F)cc3C(=O)N1[C@H]1c3cc(Cl)ccc3OC[C@@H]1[C@@H]2c1ccccc1", "Potency": "inconclusive [cytotoxic, single point]"}, {"compound": "COc1ccc(C2CC(c3ccc4ccccc4c3OC(C)=O)=NN2C(C)=O)cc1", "note": "(stereo not given)", "Potency": "inconclusive [cytotoxic, single point]"}, {"compound": "COc1cc(C(=O)NCCOc2cc(C)ccc2C(C)C)cc(OC)c1OC", "activity, negative = less viability": "inconclusive: -2.25% [cytotoxic]"}, {"compound": "COc1ccc(CCN(C)CC(=O)Nc2ccc(F)c(Cl)c2)cc1OC", "Potency": "inactive"}, {"compound": "C[C@H](CO)N1C[C@H](C)[C@H](CN(C)C(=O)Nc2cccc3ccccc23)Oc2c(NC(=O)c3ccc(-c4nccs4)cc3)cccc2C1=O", "Potency": "inactive"}, {"compound": "COC(=O)c1ccccc1NC1=C/C(=N\\S(=O)(=O)c2ccc(C(=O)O)cc2)c2ccccc2C1=O", "Potency": "active: 23.1 µM"}, {"compound": "CCc1ccccc1OCC(=O)Nc1ccc(N2CCCC2)cc1C", "Potency": "inconclusive [cytotoxic, single point]"}, {"compound": "Cc1cc(C)c(S(=O)(=O)N2CCCCC2)c(C)c1N(C)S(=O)(=O)c1ccccc1", "Potency": "inconclusive [cytotoxic, single point]"}, {"compound": "N#Cc1nc(COc2ccc(Cl)cc2)oc1N1CCCCCC1", "Potency": "inactive"}, {"compound": "COc1ccc(N(C(=O)C(C)C)S(=O)(=O)c2ccc3c(c2)n(C)c(=O)n3C)cc1", "Potency": "inactive"}, {"compound": "O=C(NNS(=O)(=O)c1ccccc1[N+](=O)[O-])c1ccc(O)cc1", "Potency": "inactive"}, {"compound": "COc1ccc(NC(=S)N2CCC(C(=O)c3ccc(Cl)cc3)CC2)cc1", "Potency": "inactive"}, {"compound": "Cc1cc(C(=O)COC(=O)c2cccnc2Cl)c(C)n1CC1CCCO1", "note": "(stereo not given)", "Potency": "inactive"}, {"compound": "CCOc1ccc(-c2cc(CCCC(=O)Nc3cccc(OC)c3)no2)cc1", "Potency": "inconclusive [cytotoxic, partial curve]"}, {"compound": "Cc1cc(OCc2cn(CC(=O)c3ccc(O)cc3)nn2)ccc1[N+](=O)[O-]", "Potency": "inconclusive [cytotoxic, full curve, poor fit]"}, {"compound": "CC(C)Nc1nc(Cl)nc(N(C#N)CN2C(=O)c3ccccc3S2(=O)=O)n1", "Potency": "inactive"}, {"compound": "CCOC(=O)Cc1nnc(NC(=O)CSc2nnc3c4ccccc4n(C)c3n2)s1", "Potency": "inconclusive [cytotoxic, single point]"}, {"compound": "CN(C)CCNC(=O)c1cc2c(s1)-c1ccc(Cl)cc1SC2", "Potency": "inconclusive [cytotoxic, single point]"}, {"compound": "CC(Sc1nncs1)C(=O)Nc1ccc2c(c1)OCO2", "note": "(stereo not given)", "Potency": "inactive"}, {"compound": "CC(=O)Nc1cccc(-c2ccnc3c2CC(C)(C(=O)NCc2ccc(N(C)C)cc2)O3)c1", "note": "(stereo not given)", "Potency": "inconclusive [cytotoxic, full curve]"}, {"compound": "CCOc1c(CNCCNC(=O)c2nonc2N)cccc1OC", "Potency": "inconclusive [cytotoxic, single point]"}, {"compound": "CCOC(=O)NC(=S)Nc1ccc(C(C)(C)C)cc1Br", "Potency": "inconclusive [cytotoxic, single point]"}, {"compound": "CCN(CC)CCN(Cc1cc2cc3c(cc2[nH]c1=O)OCCO3)C(=S)NCCOC", "Potency": "inactive"}, {"compound": "Cc1ccc(-n2sc3ccccc3c2=O)cc1S(=O)(=O)N1CCCCC1", "Potency": "inconclusive [cytotoxic, full curve, poor fit]"}, {"compound": "O=C(NN=Cc1ccccc1Cl)c1ccc([N+](=O)[O-])cc1", "Potency": "inconclusive [rising, single point]"}, {"compound": "Cn1nc(-c2ccc(Cl)cc2)c2cc(C(=O)NCC3CCCO3)sc21", "note": "(stereo not given)", "Potency": "inconclusive [cytotoxic, single point]"}, {"compound": "CC(C)(C)C(=O)/C(=C/c1ccc(Cl)cc1)n1cncn1", "Potency": "active: 16.4 µM"}, {"compound": "CCc1cnc(Nc2nc(C(N)Cc3ccc(Cl)cc3)cs2)nc1", "note": "(stereo not given)", "Potency": "active: 20.6 µM"}, {"compound": "O=C(Nc1nnc(-c2ccco2)o1)c1ccc(S(=O)(=O)N2CCCC2)cc1", "Potency": "inconclusive [cytotoxic, single point]"}, {"compound": "c1ccc(-[n+]2nc(Nc3cccc4ccccc34)sc2-c2c3ccccc3cc3ccccc23)cc1", "Potency": "active: 3.66 µM"}, {"compound": "CCc1ccc(OCC2c3cc(OC)c(OC)cc3CCN2C(=S)NC)cc1", "note": "(stereo not given)", "Potency": "inconclusive [cytotoxic, partial curve]"}, {"compound": "CCCCn1c(N)c(N(CC(C)C)C(=O)c2ccc(S(=O)(=O)N3CCCCC3)cc2)c(=O)[nH]c1=O", "Potency": "inactive"}, {"compound": "COc1ccc(C(CNC(=O)c2cc(S(=O)(=O)N3CCN(c4ccccc4)CC3)ccc2Cl)N(C)C)cc1", "note": "(stereo not given)", "Potency": "inconclusive [cytotoxic, single point]"}, {"compound": "CN(/N=C\\c1ccc(O)c(O)c1)c1nc(-c2ccccc2)cc(-c2ccccc2)n1", "Potency": "inconclusive [cytotoxic, single point]"}, {"compound": "O=C(NC(=S)Nc1ccccn1)c1ccc(-c2ccccc2)cc1", "Potency": "inactive"}, {"compound": "CCOc1ccc(NC(=O)CCCN2C(=O)C(c3ccccc3)Oc3cccnc32)cc1", "note": "(stereo not given)", "activity, negative = less viability": "inconclusive: -3.21%"}, {"compound": "Cc1ccc(NC(=S)NNC(=O)c2c([N+](=O)[O-])c(C)nn2C)cc1", "Potency": "active: 5.62 µM"}, {"compound": "Cc1ccc(Nc2ncc(C(=O)NCCCN3CCN(C)CC3)c3ccccc23)cc1Cl", "Potency": "active: 16.4 µM"}, {"compound": "O=C(COc1ccc(Cl)cc1)Nc1ccccc1C(=O)NCc1ccco1", "Potency": "inconclusive [cytotoxic, single point]"}, {"compound": "Cn1c(NCc2cccc(Br)c2)nc2ccccc21", "Potency": "inconclusive [cytotoxic, single point]"}, {"compound": "O=C(NCCC1CCCCN1S(=O)(=O)c1cccs1)C(=O)Nc1ccc(F)cc1F", "note": "(stereo not given)", "Potency": "inconclusive [cytotoxic, single point]"}, {"compound": "CC(=O)NC1(C)CCC2CC1C(C)=NC2(C)C", "note": "(stereo not given)", "Potency": "inconclusive [rising, partial curve]"}, {"compound": "CCCNC(=S)NC1CC2CCCC(C1)N2Cc1ccccc1OC", "note": "(stereo not given)", "Potency": "inactive"}, {"compound": "CCOC(=O)Cn1nc2oc(=O)c(CCN3CCN(c4ccccc4OC)CC3)c(C)c2c1C", "Potency": "inactive"}, {"compound": "C=CCNc1ncnc2c1ncn2[C@H]1CN(CCOC)C[C@@H](CO)O1", "Potency": "inconclusive [rising, partial curve]"}, {"compound": "COc1ccc(C(=O)/C(=C/c2cccs2)c2nc3ccccc3o2)cc1", "Potency": "inconclusive [cytotoxic, single point]"}, {"compound": "Cc1ccc(S(=O)(=O)Cn2nnnc2C(c2ccccn2)N2CCN(c3ccccc3)CC2)cc1", "note": "(stereo not given)", "Potency": "inconclusive [cytotoxic, single point]"}, {"compound": "CCOC(=O)c1c(C)oc2c1c(C=NCCO)c(O)c1ccccc12", "Potency": "inconclusive [cytotoxic, partial curve]"}, {"compound": "O=[N+]([O-])c1cccc(S(=O)(=O)NCc2ccncc2)c1", "Potency": "inconclusive [cytotoxic, single point]"}, {"compound": "O=C(NC1c2ccccc2-c2ccccc21)c1ccccc1", "Potency": "inactive"}, {"compound": "COC(=O)C(C(=O)Nc1nc2ccccc2s1)C1CCCC1", "note": "(stereo not given)", "Potency": "inactive"}, {"compound": "O=C(CCl)N1c2ccccc2Oc2ccc3ccccc3c21", "Potency": "inconclusive [cytotoxic, single point]"}, {"compound": "O=C1NC(=S)N/C1=C/c1cccn1-c1ccc([N+](=O)[O-])cc1", "Potency": "inconclusive [cytotoxic, single point]"}, {"compound": "Cc1cccc(COC[C@H](Cc2ccccc2)N2CCN(C(=O)c3ccc(Cl)c(Cl)c3)CCC2=O)c1", "Potency": "inconclusive [cytotoxic, single point]"}, {"compound": "O=C(Nc1ccc(F)cc1)Nc1ccccc1N1CCCCC1", "Potency": "inconclusive [cytotoxic, single point]"}, {"compound": "CCn1c2ccccc2c2cc(NC(=O)COC(=O)c3cc(Cl)c(N)cc3OC)ccc21", "Potency": "inactive"}, {"compound": "CC(=O)Nc1cccc(NC(=O)CSc2ncc(C(=O)Nc3ccccc3)c(=O)n2C)c1", "Potency": "inconclusive [cytotoxic, partial curve]"}, {"compound": "Cc1cc(C)c(NS(=O)(=O)c2ccc(NC(=O)CCC(=O)O)cc2)c(C)c1", "Potency": "inactive"}, {"compound": "Nc1ncnc2c1c(-c1ccc(Oc3ccccc3)cc1)cn2C1CCCC1", "Potency": "active: 23.1 µM"}, {"compound": "CCOC(=O)C1=C[C@@H](CC)N(S(=O)(=O)c2ccc(C)cc2)[C@H]1c1cccs1", "Potency": "inconclusive [cytotoxic, single point]"}, {"compound": "O=C(O)c1ccccc1/C=N/NC(=O)C1CCCC1", "Potency": "inactive"}, {"compound": "O=C1CC(N2CCN(c3ccccc3)CC2)C(=O)N1CCc1ccccc1", "note": "(stereo not given)", "Potency": "inactive"}, {"compound": "CCOC(=O)CNC(=O)Cn1cnc2c(nnn2-c2cccc(Cl)c2)c1=O", "Potency": "inactive"}, {"compound": "Cc1ccc(-c2noc(C3CCN(S(=O)(=O)c4ccc5c(c4)OCCO5)CC3)n2)o1", "Potency": "inconclusive [cytotoxic, single point]"}, {"compound": "O=C(/C=C/c1ccc2c(c1)OCO2)Nc1cccnc1", "Potency": "inconclusive [cytotoxic, partial curve]"}, {"compound": "Cc1sc(NC(=O)c2ccco2)c(C(c2ccc(F)cc2)N2CCN(C)CC2)c1C", "note": "(stereo not given)", "Potency": "inconclusive [cytotoxic, single point]"}]}]}
